Reference: the BET-seq Pho4 binding data (Le et al. 2018)
The other results are listed elsewhere or left out. Values were computed here from the reads of four pooled replicates and scatter widely.

Target: T1, Pho4 (S. cerevisiae) (UniProt P07270)
T1 sequence: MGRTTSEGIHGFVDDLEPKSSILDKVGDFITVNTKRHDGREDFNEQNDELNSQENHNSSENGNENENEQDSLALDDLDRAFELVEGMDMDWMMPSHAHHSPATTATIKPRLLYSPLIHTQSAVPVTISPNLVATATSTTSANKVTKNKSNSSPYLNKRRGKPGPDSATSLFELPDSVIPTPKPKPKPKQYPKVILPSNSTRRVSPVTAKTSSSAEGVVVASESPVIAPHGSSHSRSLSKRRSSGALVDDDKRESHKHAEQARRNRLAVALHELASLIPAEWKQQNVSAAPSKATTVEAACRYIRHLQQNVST
Test: relative binding free energy (BET-seq); higher = weaker binding
Details: reference: library average

Sequence	relative binding free energy
GTGCCCACGTGTGGTT	0.0837 kJ/mol
TATTGCACGTGCTGTT	-0.293 kJ/mol
GTACTCACGTGGGGAT	0.335 kJ/mol
GATATCACGTGGATTG	0.628 kJ/mol
AGGGACACGTGTATGA	-0.0837 kJ/mol
TAGTTCACGTGGATAA	0.46 kJ/mol
GAAGACACGTGGAGGG	-0.335 kJ/mol
GGCGGCACGTGTAGGT	-0.126 kJ/mol
TGGCGCACGTGGTGGC	-0.753 kJ/mol
GGTTGCACGTGCGATT	0.0418 kJ/mol
AATTTCACGTGAGTTT	1.8 kJ/mol
GCGTTCACGTGTTAGT	0.92 kJ/mol
TATAGCACGTGGATGA	-0.418 kJ/mol
GGGAACACGTGAGTAG	1.55 kJ/mol
AATGGCACGTGGGATC	-0.502 kJ/mol
TAATTCACGTGAATGT	1.46 kJ/mol
AAGTGCACGTGTTGTG	-0.586 kJ/mol
TTATTCACGTGTGAGC	1.17 kJ/mol
GGTAACACGTGGAGCG	0.586 kJ/mol
CAAGGCACGTGTTGGG	-0.251 kJ/mol
ATGTACACGTGTTTTG	0.209 kJ/mol
TTTTGCACGTGAGTTC	1.38 kJ/mol
CGGATCACGTGGTGGT	0.46 kJ/mol

Sequence	relative binding free energy
ATGGGCACGTGTAGGG	-0.293 kJ/mol
GCAGGCACGTGTGTGG	0.126 kJ/mol
ATATTCACGTGGGGTG	0.377 kJ/mol
GATGGCACGTGCGATT	0.753 kJ/mol
AAAATCACGTGTAGGG	0.377 kJ/mol
TAGTTCACGTGGCTAT	1.21 kJ/mol
TATGACACGTGGGAGA	-0.335 kJ/mol
TTTTGCACGTGCTAGG	-0.167 kJ/mol
ACTTGCACGTGGTGAG	-0.502 kJ/mol
CTGGTCACGTGAAAGG	1 kJ/mol
AGTGGCACGTGTCGGA	-0.126 kJ/mol
ATACTCACGTGGGGGC	0.418 kJ/mol
AATTGCACGTGGATTG	0.209 kJ/mol
TGTTTCACGTGAGGAC	1.17 kJ/mol
TGGTGCACGTGGGTTA	-0.628 kJ/mol
TGTTTCACGTGAGCGT	1.05 kJ/mol
GACTTCACGTGGGGTA	0.795 kJ/mol
AATTTCACGTGATTAA	0.711 kJ/mol
GATTGCACGTGTAGGG	-0.0837 kJ/mol
TATATCACGTGATAGA	1.51 kJ/mol
GGCAACACGTGTAGGG	1 kJ/mol
TAATACACGTGTGGTT	0.251 kJ/mol
ATCGACACGTGTGTTG	0.167 kJ/mol

Sequence	relative binding free energy
GGGTTCACGTGGGGTC	1.13 kJ/mol
GGTTTCACGTGGAGGG	1.09 kJ/mol
ATTAACACGTGTGGGA	0.293 kJ/mol
GCTATCACGTGAGGTT	1 kJ/mol
GTGGGCACGTGTGATT	0 kJ/mol
CGAGGCACGTGTCGGG	-0.711 kJ/mol
AGGTTCACGTGTTAGC	1 kJ/mol
ATTGACACGTGGTGTC	-0.753 kJ/mol
CATATCACGTGGGGAG	0.167 kJ/mol
TAGAGCACGTGGGGCG	-0.879 kJ/mol
GATTGCACGTGGGCGT	-0.502 kJ/mol
TGGGCCACGTGGGAGG	-0.753 kJ/mol
TGCTTCACGTGGCTTT	0.711 kJ/mol
AGGGGCACGTGCTAGA	-0.418 kJ/mol
CAGGTCACGTGGTGAG	0.293 kJ/mol
CGTGACACGTGTAGTA	0.335 kJ/mol
TTAAGCACGTGGAAAT	0.167 kJ/mol
TTGAGCACGTGCGTTA	-0.293 kJ/mol
GGTGCCACGTGGTTCT	0.586 kJ/mol
TGAAGCACGTGGTTCG	-1 kJ/mol
TGCCTCACGTGCTGGG	0.46 kJ/mol
TGGCACACGTGCAGTG	0.502 kJ/mol
AAAACCACGTGGGGGG	-0.795 kJ/mol

Sequence	relative binding free energy
ACATGCACGTGGGTAT	-0.711 kJ/mol
TTCCTCACGTGGTGGG	0.879 kJ/mol
ATAGTCACGTGGTTGG	0.377 kJ/mol
ATATCCACGTGGTTGG	0.126 kJ/mol
TGTCTCACGTGTTGCG	0.711 kJ/mol
GAGCTCACGTGGGTTA	0.628 kJ/mol
CGGGTCACGTGGCGGT	0.0837 kJ/mol
TGTAGCACGTGCGGGC	-0.92 kJ/mol
AGGGGCACGTGGCGAC	-0.753 kJ/mol
TGTTCCACGTGTGTAT	0.586 kJ/mol
CGGTTCACGTGGTGGG	0.92 kJ/mol
GTGGGCACGTGATCGT	-0.377 kJ/mol
ATTAGCACGTGAGGTC	0.92 kJ/mol
CTGTGCACGTGGGGCC	-0.837 kJ/mol
AGGTGCACGTGGGACG	-0.46 kJ/mol
AAATGCACGTGGGCGA	-0.502 kJ/mol
AATAGCACGTGGAGTG	-0.962 kJ/mol
CAAGGCACGTGTGTTT	-0.293 kJ/mol
GGGAACACGTGGAGTA	0.0418 kJ/mol
TTAAGCACGTGTATTA	-0.711 kJ/mol
AGTGTCACGTGATCGG	0.586 kJ/mol
GAGCACACGTGGTGGG	-0.167 kJ/mol
AGTGTCACGTGCGCGT	-0.753 kJ/mol

Sequence	relative binding free energy
ATGAGCACGTGTTAAT	-0.544 kJ/mol
ATTGCCACGTGGTTAG	-0.628 kJ/mol
CTGGACACGTGTGTTG	0.209 kJ/mol
GGTGGCACGTGGGTTC	-0.628 kJ/mol
GGGGACACGTGTGGAG	0.209 kJ/mol
AGATGCACGTGTAGTA	0.0837 kJ/mol
TGAGCCACGTGGGGCT	-0.669 kJ/mol
AGTTTCACGTGTTACT	1.09 kJ/mol
TTGTTCACGTGCAGGA	0.879 kJ/mol
CGGTGCACGTGAGTCG	1.17 kJ/mol
TGCAACACGTGGGGGG	-0.544 kJ/mol
GTTGTCACGTGTTCAA	0.586 kJ/mol
AGGATCACGTGTGGTT	0.795 kJ/mol
TATTGCACGTGCGATA	0.209 kJ/mol
TAGAACACGTGACGGG	0.962 kJ/mol
AACGTCACGTGTAGGG	-0.293 kJ/mol
AGTGACACGTGTCAGG	-0.209 kJ/mol
GAAGCCACGTGGAGGG	0.293 kJ/mol
GAGATCACGTGGCGTT	0.669 kJ/mol
GACGGCACGTGTTTGG	0 kJ/mol
GGCGCCACGTGTGTTT	-0.0837 kJ/mol
TTAAGCACGTGGTGAC	-0.418 kJ/mol
TATAGCACGTGTAGTG	-0.46 kJ/mol
